Assay in all cases: glycan array binding signal (z-score within array); higher = stronger binding
Common to all, as to settings: glycan notation: IUPAC condensed, linker removed

For experiment [1], the system named is Neu5Ac(a2-6)Gal(b1-4)GlcNAc(b1-3)Gal(b1-4)GlcNAc. Summed up:
(§1)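 The binding signal is a Z-score computed within each array. Data were drawn from 3228 arrays in the Consortium for Functional Glycomics database, restricted to those with a known protein sequence. Scores were averaged over arrays of the same protein sequence at different concentrations or buffers, and over linkers, and negative values can be taken as non-binding.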

Experiment [2] has as its system Neu5Ac(a2-6)Gal(b1-4)GlcNAc(b1-3)GalNAc. Summed up:
as §1

The subject of experiment [3] is Neu5Ac(a2-6)GalNAc(b1-4)GlcNAc. Summed up: as §1
Experiment [4] relates to Neu5Ac(a2-6)Gal(b1-4)GlcNAc6S. Put shortly:
as §1

The test system of experiment [5] is Neu5Ac(a2-6)Gal(b1-4)GlcNAc(b1-3)Gal(b1-4)[Fuc(a1-3)]GlcNAc(b1-3)Gal(b1-4)[Fuc(a1-3)]GlcNAc. Put shortly: as §1
Another experiment deals with Neu5Ac(a2-6)Gal. Summed up:
as §1

Another experiment concerns Neu5Ac(a2-6)Gal(b1-4)Glc. Put shortly: as §1
The test system of experiment [6] is Neu5Ac(a2-6)Gal(b1-4)GlcNAc. Summed up:
as §1

The test system of experiment [7] is Neu5Ac(a2-6)Gal(b1-4)GlcNAc(b1-6)GalNAc. Summed up:
as §1

Experiment [8] has as its system Neu5Ac(a2-6)Gal(b1-4)GlcNAc(b1-6)[Gal(b1-3)GlcNAc(b1-3)]Gal(b1-4)Glc. Put shortly:
as §1

The full list was thinned out, with the strongest signals kept by preference.

As for “M-Ficolin (Homo sapiens) (chain not printed)”, the “glycan array binding signal (z-score)” value in experiment [1] is -0.228; in experiment [2], 0.198; in experiment [3] it was -0.068. “CLEC-2 (Homo sapiens) (chain not printed)”: in experiment [4], the “glycan array binding signal (z-score)” value is -0.144. As to “M-Ficolin G221F (Homo sapiens) (chain not printed)”, the “glycan array binding signal (z-score)” value in [5] is -0.18; in the experiment on Neu5Ac(a2-6)Gal, -0.136. With “M-Ficolin Y271F (Homo sapiens) (chain not printed)”, the “glycan array binding signal (z-score)” value is -0.445 in [1] and -0.077 in the experiment with Neu5Ac(a2-6)Gal(b1-4)Glc. Turning to “L-Ficolin (Homo sapiens) (chain not printed)”, the “glycan array binding signal (z-score)” value with Neu5Ac(a2-6)Gal(b1-4)Glc is -0.476.

Consider “Gal 8-short (Homo sapiens) (chain not printed)”, for which, in experiment [4], the “glycan array binding signal (z-score)” value is -0.667. Turning to “Gal 8 long (Homo sapiens) (chain not printed)”, the “glycan array binding signal (z-score)” value was -0.32 in [6] and -0.158 in the experiment with Neu5Ac(a2-6)Gal. Consider “Galectin-8 C-terminal CRD (Homo sapiens) (chain not printed)”, for which, in experiment [4], the “glycan array binding signal (z-score)” value was -0.265. As to “NCAM1 (Homo sapiens) (chain not printed)”, in the experiment on Neu5Ac(a2-6)Gal, the “glycan array binding signal (z-score)” value was 0.518. Turning to “Meso764 (Homo sapiens) (chain not printed)”, the figures for the “glycan array binding signal (z-score)” value (in [5]; in the experiment with Neu5Ac(a2-6)Gal) were -0.228 and -0.302, respectively. On to “Gal 3 (Homo sapiens) (chain not printed)”, for which the entries for the “glycan array binding signal (z-score)” value in [1] and in experiment [6] were 0.622 and -0.294, respectively. Take “Siglec-2 (Homo sapiens) (chain not printed)”: the “glycan array binding signal (z-score)” value in experiment [4] was 13.

Regarding “Collectin K1 (Homo sapiens) (chain not printed)”, the “glycan array binding signal (z-score)” value in experiment [3] is -0.039; with Neu5Ac(a2-6)Gal, -0.151. Regarding “H-Ficolin (Homo sapiens) (chain not printed)”, in [5], the “glycan array binding signal (z-score)” value is -0.303. As to MBP (Homo sapiens) (chain not printed), the “glycan array binding signal (z-score)” value in [7] is 0.543; in experiment [8], -0.335.
